Experimental data reported in paper PMC5062570 (Nature Communications, 2016).

Assays:
[1] = biological target: T1, PF-7802-labelled proteins in ARPE-19 cells (Homo sapiens, UniProt P00387); settings: for Median SILAC Ratio (Heavy/Light): protein CYB5R3 NADH-cytochrome b5 reductase 3 (P00387)
T1 sequence (P00387 1-301): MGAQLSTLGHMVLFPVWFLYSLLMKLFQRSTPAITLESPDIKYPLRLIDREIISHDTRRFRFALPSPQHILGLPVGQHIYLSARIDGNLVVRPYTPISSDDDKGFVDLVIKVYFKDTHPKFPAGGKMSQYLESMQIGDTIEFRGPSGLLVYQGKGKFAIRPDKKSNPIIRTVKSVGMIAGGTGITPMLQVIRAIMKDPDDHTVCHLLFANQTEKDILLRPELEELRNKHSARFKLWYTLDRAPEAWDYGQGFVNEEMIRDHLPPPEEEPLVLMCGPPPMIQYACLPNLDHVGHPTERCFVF

[2] = biological target: T2, PF-7802-labelled proteins in ARPE-19 cells (Homo sapiens, UniProt P20700); settings: for Median SILAC Ratio (Heavy/Light): protein LMNB1 Lamin-B1 (P20700), replicates in separate columns
T2 sequence (P20700 1-586): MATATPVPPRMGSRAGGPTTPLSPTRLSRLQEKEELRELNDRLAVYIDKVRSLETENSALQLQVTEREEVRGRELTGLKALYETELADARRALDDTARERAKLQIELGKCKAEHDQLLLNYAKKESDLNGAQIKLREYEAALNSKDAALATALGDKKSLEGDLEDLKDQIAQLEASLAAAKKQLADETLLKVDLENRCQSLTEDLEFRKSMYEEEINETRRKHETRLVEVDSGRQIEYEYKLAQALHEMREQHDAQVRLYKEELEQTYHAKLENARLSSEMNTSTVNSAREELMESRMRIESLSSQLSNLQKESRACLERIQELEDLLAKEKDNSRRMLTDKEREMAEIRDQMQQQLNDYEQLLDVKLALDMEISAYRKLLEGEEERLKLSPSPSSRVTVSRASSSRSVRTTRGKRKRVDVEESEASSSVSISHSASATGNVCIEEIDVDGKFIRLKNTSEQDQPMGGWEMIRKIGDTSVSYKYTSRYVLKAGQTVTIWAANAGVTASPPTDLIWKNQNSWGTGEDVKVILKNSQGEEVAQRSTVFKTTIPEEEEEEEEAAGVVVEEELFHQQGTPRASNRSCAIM

[3] = biological target: T3, PF-7802-labelled proteins in ARPE-19 cells (Homo sapiens, UniProt P21589); settings: for Median SILAC Ratio (Heavy/Light): protein NT5E'-nucleotidase (P21589), replicates in separate columns
T3 sequence (P21589 27-574): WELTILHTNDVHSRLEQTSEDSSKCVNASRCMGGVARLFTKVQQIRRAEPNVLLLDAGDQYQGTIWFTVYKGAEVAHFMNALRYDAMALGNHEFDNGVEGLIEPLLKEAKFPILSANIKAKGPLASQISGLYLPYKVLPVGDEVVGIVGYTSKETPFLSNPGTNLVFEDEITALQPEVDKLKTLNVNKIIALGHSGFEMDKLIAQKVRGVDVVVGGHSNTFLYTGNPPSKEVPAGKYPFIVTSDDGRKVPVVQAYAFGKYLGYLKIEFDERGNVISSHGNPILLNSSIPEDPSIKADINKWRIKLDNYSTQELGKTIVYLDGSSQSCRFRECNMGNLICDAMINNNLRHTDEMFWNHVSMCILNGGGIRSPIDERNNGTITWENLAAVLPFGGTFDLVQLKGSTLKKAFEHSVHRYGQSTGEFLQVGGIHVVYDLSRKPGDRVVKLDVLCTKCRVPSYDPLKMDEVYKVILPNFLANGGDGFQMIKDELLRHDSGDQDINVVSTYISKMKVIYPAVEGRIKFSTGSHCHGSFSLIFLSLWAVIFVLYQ

[4] = biological target: PF-7802-labelled proteins in ARPE-19 cells (Homo sapiens, UniProt P48643); settings: protein CCT5 T-complex protein 1 subunit epsilon (P48643)
UniProt P48643, sequence (P48643 whole entry): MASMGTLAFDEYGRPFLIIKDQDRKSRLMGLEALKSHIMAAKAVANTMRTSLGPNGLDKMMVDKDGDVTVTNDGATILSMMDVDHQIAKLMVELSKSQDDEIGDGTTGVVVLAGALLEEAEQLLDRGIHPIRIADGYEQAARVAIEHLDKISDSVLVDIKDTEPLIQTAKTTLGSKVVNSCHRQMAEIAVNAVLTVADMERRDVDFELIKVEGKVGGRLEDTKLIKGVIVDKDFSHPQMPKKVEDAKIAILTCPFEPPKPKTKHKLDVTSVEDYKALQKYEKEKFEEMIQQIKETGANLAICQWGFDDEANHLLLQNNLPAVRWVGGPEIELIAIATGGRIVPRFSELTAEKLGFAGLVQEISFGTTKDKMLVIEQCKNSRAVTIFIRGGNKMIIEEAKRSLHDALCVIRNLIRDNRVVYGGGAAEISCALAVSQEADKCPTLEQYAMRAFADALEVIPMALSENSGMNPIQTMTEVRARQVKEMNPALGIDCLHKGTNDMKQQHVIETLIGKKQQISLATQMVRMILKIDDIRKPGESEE

[5] = biological target: PF-7802-labelled proteins in ARPE-19 cells (Homo sapiens, UniProt P49207); settings: protein RPL34 60S ribosomal protein L34, P49207
[6] = biological target: PF-7802-labelled proteins in ARPE-19 cells (Homo sapiens, UniProt P61978); settings: for Median SILAC Ratio (Heavy/Light): protein HNRNPK Heterogeneous nuclear ribonucleoprotein K (P61978), one column per replicate
[7] = biological target: T4, PF-7802-labelled proteins in ARPE-19 cells (Homo sapiens, UniProt P61981); settings: for Median SILAC Ratio (Heavy/Light): protein YWHAG 14-3-3 protein gamma (P61981)
T4 sequence (P61981 1-247): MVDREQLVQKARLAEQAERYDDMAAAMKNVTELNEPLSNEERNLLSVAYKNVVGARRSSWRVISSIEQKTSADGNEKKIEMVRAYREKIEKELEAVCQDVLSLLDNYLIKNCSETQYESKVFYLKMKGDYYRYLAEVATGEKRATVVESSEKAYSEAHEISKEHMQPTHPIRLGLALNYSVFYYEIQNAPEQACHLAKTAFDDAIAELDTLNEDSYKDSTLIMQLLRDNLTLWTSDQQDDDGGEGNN

[8] = biological target: T5, PF-7802-labelled proteins in ARPE-19 cells (Homo sapiens, UniProt P63104); settings: for Median SILAC Ratio (Heavy/Light): protein YWHAZ 14-3-3 protein zeta/delta (P63104)
T5 sequence (P63104 1-245): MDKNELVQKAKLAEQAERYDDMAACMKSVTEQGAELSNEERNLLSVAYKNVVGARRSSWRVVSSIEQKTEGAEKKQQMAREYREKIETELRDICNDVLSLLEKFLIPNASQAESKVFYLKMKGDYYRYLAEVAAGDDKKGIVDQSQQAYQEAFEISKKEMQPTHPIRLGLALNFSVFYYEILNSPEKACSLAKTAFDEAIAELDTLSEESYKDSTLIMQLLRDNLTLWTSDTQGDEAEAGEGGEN

[9] = biological target: PF-7802-labelled proteins in ARPE-19 cells (Homo sapiens, UniProt Q02218); settings: protein OGDH 2-oxoglutarate dehydrogenase, mitochondrial (Q02218); replicates in separate columns
[10] = biological target: PF-7802-labelled proteins in ARPE-19 cells (Homo sapiens, UniProt Q9BUF5); settings: TUBB6 Tubulin beta-6 chain (Q9BUF5)
UniProt Q9BUF5, sequence (Q9BUF5 whole entry): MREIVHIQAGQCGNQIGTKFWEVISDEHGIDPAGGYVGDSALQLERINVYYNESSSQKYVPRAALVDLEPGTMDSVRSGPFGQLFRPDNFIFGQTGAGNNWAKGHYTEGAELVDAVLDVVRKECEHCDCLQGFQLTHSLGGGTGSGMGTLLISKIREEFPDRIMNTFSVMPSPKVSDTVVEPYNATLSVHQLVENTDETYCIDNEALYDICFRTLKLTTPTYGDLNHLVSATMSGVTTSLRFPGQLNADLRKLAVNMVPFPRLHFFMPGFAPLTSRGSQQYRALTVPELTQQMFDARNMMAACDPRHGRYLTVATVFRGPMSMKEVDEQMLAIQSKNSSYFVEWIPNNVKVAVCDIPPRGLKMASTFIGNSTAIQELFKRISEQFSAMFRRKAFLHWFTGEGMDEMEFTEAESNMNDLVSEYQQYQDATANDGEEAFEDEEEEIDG

[11] = biological target: PF-7802-labelled proteins in ARPE-19 cells (Homo sapiens, UniProt Q9BWM7); settings: SFXN3 Sideroflexin-3 (Q9BWM7)
UniProt Q9BWM7, sequence (Q9BWM7 whole entry): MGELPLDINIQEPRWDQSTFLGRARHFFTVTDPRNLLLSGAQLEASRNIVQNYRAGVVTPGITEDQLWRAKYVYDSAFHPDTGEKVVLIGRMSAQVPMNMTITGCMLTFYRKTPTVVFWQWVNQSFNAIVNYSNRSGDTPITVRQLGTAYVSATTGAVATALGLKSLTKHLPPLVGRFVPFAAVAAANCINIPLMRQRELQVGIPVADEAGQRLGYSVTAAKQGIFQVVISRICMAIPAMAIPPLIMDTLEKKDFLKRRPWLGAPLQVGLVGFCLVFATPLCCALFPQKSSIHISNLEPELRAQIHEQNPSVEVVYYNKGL

CNC1CCN(C(=O)C[C@@H](Cc2ccccc2)C(=O)N[C@@H](CSC)C(=O)N[C@@H](CC2CCCCC2)[C@@H](O)C(=O)OC(C)C)CC1 [CP-108671, reference compound]
SILAC ratio (DMSO/CP-108671) ([1]; P00387 CYB5R3 NADH-cytochrome b5 reductase 3): 0.93
Median SILAC Ratio (Heavy/Light) [1]: 1.077
SILAC ratio (DMSO/CP-108671) ([2]; P20700 LMNB1 Lamin-B1): 0.91
Median SILAC Ratio (Heavy/Light) [2]: 1.104
SILAC ratio (DMSO/CP-108671) ([3]; P21589 NT5E 5'-nucleotidase): 1.16
Median SILAC Ratio (Heavy/Light) [3]: 0.863
Median SILAC Ratio (Heavy/Light) [4]: 0.98
Median SILAC Ratio (Heavy/Light) [5]: 1.66
SILAC ratio (DMSO/CP-108671) ([6]; P61978 HNRNPK Heterogeneous nuclear ribonucleoprotein K): 0.85
Median SILAC Ratio (Heavy/Light) [6]: 1.184
SILAC ratio (DMSO/CP-108671) ([7]; P61981 YWHAG 14-3-3 protein gamma): 0.41
Median SILAC Ratio (Heavy/Light) ([7]; replicate R1): 2.51
SILAC ratio (DMSO/CP-108671) ([8]; P63104 YWHAZ 14-3-3 protein zeta/delta): 0.52
Median SILAC Ratio (Heavy/Light) ([8]; replicate R1): 1.941
Median SILAC Ratio (Heavy/Light) [9]: 1.171
Median SILAC Ratio (Heavy/Light) [10]: 2.641
Median SILAC Ratio (Heavy/Light) [11]: 1.272

Cc1cc([C@H]2C[C@H]3[C@@H](C)SC(N)=N[C@@]3(c3ccc(F)cc3F)CO2)on1 [PF-9283]
Median SILAC Ratio (Heavy/Light) [1]: 1.354 and 1.222
Median SILAC Ratio (Heavy/Light) [2]: 1.325 and 3.226
Median SILAC Ratio (Heavy/Light) [3]: 1.036
Median SILAC Ratio (Heavy/Light) [4]: 0.9006
Median SILAC Ratio (Heavy/Light) [5]: 1.562
Median SILAC Ratio (Heavy/Light) [6]: 1.409 and 0.9828 and 2.235
Median SILAC Ratio (Heavy/Light) ([7]; replicate R1): 3.224
Median SILAC Ratio (Heavy/Light) ([7]; replicate R4): 1.6178
Median SILAC Ratio (Heavy/Light) ([8]; replicate R1): 1.807
Median SILAC Ratio (Heavy/Light) ([8]; replicate R3): 1.992
Median SILAC Ratio (Heavy/Light) ([8]; replicate R4): 2.624
Median SILAC Ratio (Heavy/Light) [9]: 1.344
Median SILAC Ratio (Heavy/Light) [10]: 1.696 and 1.68 and 1.723
Median SILAC Ratio (Heavy/Light) [11]: 1.476

Several values for one entry are separate records, joined by “and”; a condition that tells them apart may be missing. Identical values can stand only once. Like-named read-outs stand apart in the source and are kept apart here.
